From the supplement of paper PMC9174493
Counter-ions that a name gives are not always drawn. The list shows a part of the results. Single values of this set are uncertain. Values with irradiation are relative to irradiated vehicle.

Test system: A549-Dual
Experiment: NF-kB reporter (SEAP) activity, viability-corrected, relative to vehicle (fold change vs vehicle); higher = more activation of STING-IRF / NF-kB immune response reporter
Conditions: 10 µM; irradiation: none
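Note: viability correction based on the alamar blue assay, with concentrations leaving 10% survival or less dropped.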

Row | Structure (SMILES) | NF-kB reporter
1 | CC(=O)C1CCC2C3CCC4=CC(=O)CCC4(C)C3CCC12C (centres undefined) [Progesterone] | 0.777
2 | NCCCC(O)(P(=O)(O)O)P(=O)(O)[O][Na].O.O.O (centres undefined) [Alendronate sodium trihydrate] | 0.663
3 | Cc1cc2c(cc1S(N)(=O)=O)S(=O)(=O)CCC2 [Meticrane] | 0.86
4 | Cc1cc(NS(=O)(=O)c2ccc(N)cc2)no1 [Sulfamethoxazole] | 1.08
5 | COc1ccc(NS(=O)(=O)c2ccc(N)cc2)nn1 [Sulfamethoxypyridazine] | 0.965
6 | Cc1ccccc1N1CCN(CCc2nnc3n2CCCC3)CC1.Cl [Dapiprazole Hydrochloride] | 1.38
7 | Cc1c(C)c2c(c(C)c1O)CCC(C)(COc1ccc(CC3SC(=O)NC3=O)cc1)O2 (centres undefined) [Troglitazone (CS-045)] | 0.411
8 | Cl.NCc1ccc(S(N)(=O)=O)cc1 [Mafenide hydrochloride] | 0.917
9 | CC(C)(CO)C(O)C(=O)NCCC(=O)[O-].[Na+] [D-Pantothenate Sodium] | 0.651
10 | CCCCOCc1ccc(O)c(OC)c1 [Vanillyl Butyl Ether] | 0.606
11 | CC(C)=C1C/C=C(\C)CC/C=C(\C)CC1=O [Germacrone] | 1.11
12 | COc1ccc2cc(C(=O)O)ccc2c1 [6-Methoxy-2-naphthoic acid] | 0.562
13 | Clc1ccc(C(Cn2ccnc2)OCc2ccc(Sc3ccccc3)cc2)c(Cl)c1.O=[N+]([O-])O (centres undefined) [Fenticonazole Nitrate] | 0.708
14 | CC(NC(CCc1ccccc1)C(=O)O)C(=O)N1CCCC1C(=O)O.O.O (centres undefined) [Enalaprilat Dihydrate] | 1.03
15 | O=C1CCCC(=O)C1C(=O)c1ccc(C(F)(F)F)cc1[N+](=O)[O-] [Nitisinone] | 0.869
16 | C=C1/C(=C\C=C2/CCC[C@]3(C)[C@@H]([C@H](C)/C=C/[C@H](C)C(C)C)CC[C@@H]23)C[C@@H](O)C[C@@H]1O [Doxercalciferol] | 0.704
17 | NC(=O)NC(CCC(=O)O)C(=O)O (centres undefined) [Carglumic Acid] | 0.944
18 | COCCCOc1ccnc(CS(=O)c2nc3ccccc3[n]2[Na])c1C (centres undefined) [Rebeprazole sodium] | 0.912
19 | CC1(C)NC(=O)N(c2ccc([N+](=O)[O-])c(C(F)(F)F)c2)C1=O [Nilutamide] | 1.13
20 | CC(=O)Oc1cc(C(C)C)c(OCCN(C)C)cc1C.Cl [Moxisylyte hydrochloride] | 1.17

Row | Structure (SMILES) | NF-kB reporter
21 | NC(=O)CC(N)C(=O)O.O (stereo not drawn) [L(+)-Asparagine monohydrate] | 0.768
22 | CC(NCc1ccc(OCc2cccc(F)c2)cc1)C(N)=O (centres undefined) [Safinamide] | 0.805
23 | CCc1ccc(CCOc2ccc(CC3SC(=O)NC3=O)cc2)nc1.Cl (centres undefined) [Pioglitazone HCl] | 0.697
24 | CNCCc1ccccn1.CS(=O)(=O)O.CS(=O)(=O)O [Betahistine mesylate] | 1.15
25 | O=c1c(-c2ccc(O)cc2)coc2cc(OC3OC(CO)C(O)C(O)C3O)ccc12 (centres undefined) [Daidzin] | 1.09
26 | N[C@@H](CCC(=O)O)C(=O)O [(S)-Glutamic acid] | 0.808
27 | COC(=O)Nc1nc2ccc(C(=O)c3ccc(F)cc3)cc2[nH]1 [Flubendazole] | 1.66
28 | CCCNCC(O)COc1ccccc1C(=O)CCc1ccccc1 (centres undefined) [Propafenone HCl] | 1.03
29 | CCCCCCCCCCCCCCCCOP(=O)([O-])OCC[N+](C)(C)C [Miltefosine] | 0.923
30 | O=C1Nc2ccccc2C1=O [Isatin] | 0.726
31 | C#CCN(C)Cc1ccccc1.Cl [Pargyline hydrochloride] | 1.15
32 | CC12CC3CC(C)(C1)CC(N)(C3)C2.Cl [Memantine HCl] | 0.788
33 | CC(C)OC(=O)C(C(=O)OC(C)C)=C1SC=CS1 [Malotilate] | 0.866
34 | COc1cc(Cc2cnc(N)nc2N)cc(OC)c1OC [Trimethoprim] | 1.09
35 | CN(CCN1CCC(OC(=O)Nc2ccccc2-c2ccccc2)CC1)C(=O)c1ccc(CN2CCC(C(N)=O)CC2)cc1 [Revefenacin] | 1.19
36 | Nc1c2c(nc3ccccc13)CCCC2 [Tacrine hydrochloride hydrate] | 1.01
37 | NS(=O)(=O)c1cc2c(cc1Cl)N=CNS2(=O)=O [Chlorothiazide] | 0.872
38 | CS(=O)(=O)O.CS(=O)(=O)O.N=C(N)Nc1ccc(C(=O)Oc2ccc3cc(C(=N)N)ccc3c2)cc1 [Nafamostat Mesylate] | 1.34
39 | O=C1C(N(CO)C(=O)NCO)N(CO)C(=O)N1CO (centres undefined) [Diazolidinyl urea] | 0.887
